# In the supplement of paper PMC8728848:
# The list shows a part of the results.
# B1: GALT1 615 (Arabidopsis thaliana), Q8L7F9 (protein)
# chain: DPMRGSHHHHHHGMASMTGGQQMGRDLYDDDDKSRLQKPYITAAASVVVTPNTTLPMEWLRITLPDFMKEARNTQEAISGDDIAVVSGLFVEQNVSKEEREPLLTWNRLESLVDNAQSLVNGVDAIKEAGIVWESLVSAVEAKKLVDVNENQTRKGKEELCPQFLSKMNATEADGSSLKLQIPCGLTQGSSITVIGIPDGLVGSFRIDLTGQPLPGEPDPPIIVHYNVRLLGDKSTEDPVIVQNSWTASQDWGAEERCPKFDPDMNKKVDDLDECNKMVGGEINRTSSTSLQSNTSRGVPVAREASKHEKYFPFKQGFLSVATLRVGTEGMQMTVDGKHITSFAFRDTLEPWLVSEIRITGDFRLISILA
# Legend:
# Assay in all cases: glycan array binding signal (z-score within array); higher = stronger binding
# Conditions in all cases: glycan notation: IUPAC condensed, linker removed
# [1] = biological target: GlcNAc(a1-3)Gal(b1-4)GlcNAc
# Procedure, shortened: (§1)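 Columns mapping to the same glycan were averaged after glycan names were converted to IUPAC-condensed notation. The data come from 3228 arrays in the Consortium for Functional Glycomics database, limited to those with an available protein sequence. Binding is reported as a within-array Z-score averaged across arrays of one protein sequence and across linkers.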
# [2] = biological target: GlcNAc(a1-4)Gal(b1-3)GlcNAc
# Procedure, shortened: as §1
# [3] = biological target: GlcNAc(a1-4)Gal(b1-4)GalNAc
# Procedure, shortened: as §1
# [4] = biological target: GlcNAc(a1-4)Gal(b1-4)GlcNAc
# Procedure, shortened: as §1
# [5] = biological target: GlcNAc(a1-4)Gal(b1-4)GlcNAc(b1-3)Gal(b1-4)Glc
# Procedure, shortened: as §1
# [6] = biological target: GlcNAc(a1-4)Gal(b1-4)GlcNAc(b1-3)Gal(b1-4)GlcNAc
# Procedure, shortened: as §1
# [7] = biological target: GlcNAc(a1-4)Gal(b1-4)GlcNAc(b1-3)Gal(b1-4)GlcNAc(b1-3)Gal(b1-4)GlcNAc
# Procedure, shortened: as §1
# [8] = biological target: GlcNAc(a1-4)Gal(b1-4)GlcNAc(b1-3)Gal(b1-4)[Fuc(a1-3)]GlcNAc(b1-3)Gal(b1-4)[Fuc(a1-3)]GlcNAc
# Procedure, shortened: as §1
# [9] = biological target: GlcNAc(a1-6)Gal(b1-4)GlcNAc
# Procedure, shortened: as §1
# [10] = biological target: GlcNAc(b1-2)Gal(b1-3)GalNAc
# Procedure, shortened: as §1
# [11] = biological target: GlcNAc(b1-2)Man(a1-3)[GlcNAc(b1-2)Man(a1-6)]Man(b1-4)GlcNAc(b1-4)GlcNAc
# Procedure, shortened: as §1
# [12] = biological target: GlcNAc(b1-2)Man(a1-3)[GlcNAc(b1-2)Man(a1-6)]Man(b1-4)GlcNAc(b1-4)[Fuc(a1-6)]GlcNAc
# Procedure, shortened: as §1
# [13] = biological target: GlcNAc(b1-3)Gal
# Procedure, shortened: as §1
# [14] = biological target: GlcNAc(b1-3)Gal(b1-3)GalNAc
# Procedure, shortened: as §1
# [15] = biological target: GlcNAc(b1-3)Gal(b1-4)Glc
# Procedure, shortened: as §1
# [16] = biological target: GlcNAc(b1-3)Gal(b1-4)GlcNAc
# Procedure, shortened: as §1
# [17] = biological target: GlcNAc(b1-3)Gal(b1-4)GlcNAc(b1-3)Gal(b1-4)GlcNAc
# Procedure, shortened: as §1
# [18] = biological target: GlcNAc(b1-3)GalNAc
# Procedure, shortened: as §1
# [19] = biological target: GlcNAc(b1-3)Man
# Procedure, shortened: as §1
# [20] = biological target: GlcNAc(b1-3)[GlcNAc(b1-4)][GlcNAc(b1-6)]GlcNAc
# Procedure, shortened: as §1
# [21] = biological target: GlcNAc(b1-3)[GlcNAc(b1-6)]Gal(b1-4)GlcNAc
# Procedure, shortened: as §1
# [22] = biological target: GlcNAc(b1-3)[GlcNAc(b1-6)]GalNAc
# Procedure, shortened: as §1
# [23] = biological target: GlcNAc(b1-4)Gal(b1-4)GlcNAc
# Procedure, shortened: as §1
# [24] = biological target: GlcNAc(b1-4)GlcNAc
# Procedure, shortened: as §1
# [25] = biological target: GlcNAc(b1-4)GlcNAc(b1-4)GlcNAc
# Procedure, shortened: as §1
# [26] = biological target: GlcNAc(b1-4)GlcNAc(b1-4)GlcNAc(b1-4)GlcNAc(b1-4)GlcNAc
# Procedure, shortened: as §1
# [27] = biological target: GlcNAc(b1-4)GlcNAc(b1-4)GlcNAc(b1-4)GlcNAc(b1-4)GlcNAc(b1-4)GlcNAc
# Procedure, shortened: as §1
# [28] = biological target: GlcNAc(b1-4)[GlcNAc(b1-6)]GalNAc
# Procedure, shortened: as §1
# [29] = biological target: GlcNAc(b1-6)Gal(b1-4)GlcNAc
# Procedure, shortened: as §1
# [30] = biological target: GlcNAc(b1-6)GalNAc
# Procedure, shortened: as §1
# [31] = biological target: GlcNAc3Prop(b1-4)GlcNAc
# Procedure, shortened: as §1
# [32] = biological target: GlcNAc6S(b1-3)Gal(b1-4)GlcNAc
# Procedure, shortened: as §1
# [33] = biological target: Kdn(a2-3)Gal(b1-3)GalNAc
# Procedure, shortened: as §1
# [34] = biological target: Kdn(a2-3)Gal(b1-3)GlcNAc
# Procedure, shortened: as §1
# [35] = biological target: Kdn(a2-3)Gal(b1-4)Glc
# Procedure, shortened: as §1
# [36] = biological target: Kdn(a2-3)Gal(b1-4)GlcNAc
# Procedure, shortened: as §1
# [37] = biological target: Kdn(a2-3)Gal(b1-4)[Fuc(a1-3)]GlcNAc
# Procedure, shortened: as §1
# [38] = biological target: Kdn(a2-6)Gal(b1-4)GlcNAc
# Procedure, shortened: as §1
binder,measurement,setting,value
B1,glycan array binding signal (z-score),[1],-0.314
same,glycan array binding signal (z-score),[2],1.13
same,glycan array binding signal (z-score),[3],8
same,glycan array binding signal (z-score),[4],-0.169
same,glycan array binding signal (z-score),[5],-0.397
same,glycan array binding signal (z-score),[6],-0.46
same,glycan array binding signal (z-score),[7],-0.529
same,glycan array binding signal (z-score),[8],0.255
same,glycan array binding signal (z-score),[9],-0.495
same,glycan array binding signal (z-score),[10],0.019
same,glycan array binding signal (z-score),[11],-0.109
same,glycan array binding signal (z-score),[12],6.45
same,glycan array binding signal (z-score),[13],-0.263
same,glycan array binding signal (z-score),[14],-0.088
same,glycan array binding signal (z-score),[15],-0.006
same,glycan array binding signal (z-score),[16],-0.353
same,glycan array binding signal (z-score),[17],-0.233
same,glycan array binding signal (z-score),[18],-0.386
same,glycan array binding signal (z-score),[19],-0.138
same,glycan array binding signal (z-score),[20],-0.255
same,glycan array binding signal (z-score),[21],-0.348
same,glycan array binding signal (z-score),[22],0.618
same,glycan array binding signal (z-score),[23],-0.272
same,glycan array binding signal (z-score),[24],-0.143
same,glycan array binding signal (z-score),[25],-0.144
same,glycan array binding signal (z-score),[26],-0.001
same,glycan array binding signal (z-score),[27],-0.301
same,glycan array binding signal (z-score),[28],-0.607
same,glycan array binding signal (z-score),[29],1.03
same,glycan array binding signal (z-score),[30],-0.21
same,glycan array binding signal (z-score),[31],-0.504
same,glycan array binding signal (z-score),[32],-0.341
same,glycan array binding signal (z-score),[33],-0.772
same,glycan array binding signal (z-score),[34],0.05
same,glycan array binding signal (z-score),[35],-0.219
same,glycan array binding signal (z-score),[36],0.051
same,glycan array binding signal (z-score),[37],-0.437
same,glycan array binding signal (z-score),[38],-0.101
